According to the supplement of paper PMC10441789:
Some of the results follow. Antibody binding of pooled human sera (four to six donors per pool; dilution not stated) to peptides of the Trypanosoma cruzi antigen TSSA on microarrays. Quantile-normalised fluorescence in arbitrary units, mean of duplicate arrays; higher = more binding. No active / inactive call. The uninfected pools are read here as the healthy donors of the same country. The strongest signals lie near the top of the scale (about 60,000).

System: pooled sera of uninfected people, Colombia
Assay: antibody binding signal (normalised fluorescence) (arbitrary fluorescence units); higher = stronger serum antibody binding to peptide
Description: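 Microarray of 15-residue peptides over residues 30-55 of Trypanosoma cruzi TSSAII, each with 1 to 10 substitutions at naturally variable positions, probed with one serum pool per country.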

Sequence	antibody binding signal
TDNKTATGGAPSQSG	160
TEKKTATGGTPSPPG	1250
SGTDNKAAAGETPSQ	136
ISTPPSGKDNKTATG	199
SSTPPSGKDKKAAAG	153
GTDKKPATGEAPSPS	316
PSGTEKKPATGETPS	386
GKENKAATGGTPSQP	138
GKENKAATGEAPSPS	187
GKENKPATGGTPSPS	189
GTDNKTATGEAPSPP	131
ENKAATGETPSPPGA	123
GTENKTAAGETPSQP	232
SGKDNKTATGGAPSQ	374
KKPATGGAPSQPGAS	121
GTDKKAAAGEAPSPP	79.9
GKDKKTAAGGAPSPP	163
GKDKKTAAGGAPSQS	146
KEKKPAAGEAPSQSG	91.4
SSTPPSGTEKKAAAG	173

Sequence	antibody binding signal
SGTDKKPATGETPSP	340
DKKAAAGGTPSPSGA	157
KDKKPAAGGTPSQPG	131
SSTPPSGKENKAATG	767
GKDNKTATGGTPSQP	182
SGTDKKTAAGGAPSP	258
PSGKEKKAAAGGTPS	177
SGKDKKPAAGGTPSQ	638
GKDNKAAAGGAPSPS	172
PPSGKDNKAATGGTP	166
GKENKPATGGTPSQP	176
STPPSGTDNKTATGE	219
PSGKDNKAATGEAPS	175
GKENKTATGGTPSQP	121
GKENKAATGGTPSQS	129
SGKEKKPATGGTPSQ	111
KDKKPAAGETPSPPG	75.8
PSGTEKKTATGETPS	208
TDKKTATGEAPSQPG	98.5
EKKTAAGGAPSPSGA	217
